From the RNAGym collection of RNA variant scans (doi:10.7554/elife.90254) come the findings set out here.

Read counts are not given, so values of variants with three or more changes are uncertain.

Sequences and labels used below:
B1: LINE1-mini (parent)
chain: GGCAGAGCUCAACACAGCGUGGCAAAGUGGCUGUGGCUAGACUGCC

In this series the parent is B1. As to the kind of experiment: self-cleavage, relative activity (ratio to wild type); higher = more cleavage; in vitro, sequencing; the parent is a self-cleaving ribozyme.
For the variant A6U C23U A25G, the self-cleavage turned out to be 0.5.

Take G17A G19U C46G: the self-cleavage came out at 0.19.

As to G5U C15U A16C C42U, the self-cleavage is 0.06. The figure for G5A U28A C31A is 0.11. Regarding C18G A26U A39G C42A, the self-cleavage is 0.02. Consider G21C A24C G33A A39U U43A, for which the self-cleavage worked out at 0.07.

Consider C8G G19A U28A, for which the self-cleavage came out at 0.05. With G1C G33A C42G, the self-cleavage is 0.02. With A6C G19U A25G A41C U43A, the self-cleavage was 0.01. For G7U C10U G30C U32A, the self-cleavage is 0.01. The figure for U32A G36U G40U C46A is 0.18; for U9G A26U G44U it is 0.07; for A12C G35U C45A it is 0.04. With G2U G27C U43C, the self-cleavage worked out at 0.01.

A14C G29U U38G A41G: the self-cleavage was found to be 0.03. G5U A16U C42A U43A: the self-cleavage worked out at 0.01. Regarding G17C G22U G30C, the self-cleavage was found to be 0.08. Next, G7U A12C G17U G29A: 0.01. Regarding G5C G7A U9G A16U G17A C23U C31A U38C, the self-cleavage was 0.04. As to U9G C15G G35U C37A, the self-cleavage was 0.02. Consider C10A C18G G27C C37U, for which the self-cleavage is 0.01. The figure for U20G G30U U43A is 0.02. On to G1C C10A C18A G33C, for which the self-cleavage was determined as 0. With C10A A14G C18U C23G C46A, the self-cleavage was determined as 0.04. For A4U C8G C13A G21A U28G G40C, the self-cleavage came to 0.01. As to G7U C8G A16C U34A, the self-cleavage was found to be 0.03.

Take G27C U34G U38G: the self-cleavage amounted to 0. As for U9A G17U A26G G36U, the self-cleavage stood at 0.06. On to G2U A16U G30U, for which the self-cleavage came out at 0.01. As to C15G G22C G29C, the self-cleavage was determined as 0.19. With A24C G35U G40C, the self-cleavage is 0.09. C3G A12G G30U: the self-cleavage turned out to be 0.34. The figure for C8U A14G A16U is 0.03. The figure for C10G G22U C45A is 0.02; for A12U C18G G21C A26U G33U it is 0.03; for G22U G30A U32C it is 0.08. Next, A12G C15U G17U A24G: 0.01; G2C G7U C10A C15A C23G: 0.02; G1A U9A C15G G19U C31A U34G: 0.06. Consider U9A C15G A24G G30U U32G G40C, for which the self-cleavage is 0.12. For A26G U28A G35C C42G C45A, the self-cleavage was 0.04. Next, C10G C18G U34A: 0.

A11C A12G G21U: the self-cleavage was 0.01. Take G1U C42A C45A: the self-cleavage is 0.02. Next, G19C U20C C45G: 0.07; U9A C23G G27U: 0.12. In the case of C8U C23U G36U, the self-cleavage amounted to 0.17. Next, C3A G21U A24U G35U G40A: 0.17. The figure for A4G C8A G27A C42G is 0.12; for G5U A16C G35A it is 0.25.

Consider C3A C8G G29U U38G U43A, for which the self-cleavage was determined as 0.92. For C18G G21A C23A G30C C31U, the self-cleavage turned out to be 0.11.

Regarding C8G C18A A26C G27A G35U, the self-cleavage was 0.11. G7U A26U G29A U32C U38G: the self-cleavage amounted to 0.

With G2A A14U G19C G40A, the self-cleavage worked out at 0.11. Next, A6G C8U U9C A11G C46U: 0.04; C3A C8A C15G G35A: 0.35; C15G G17A U20C A39U: 0.02. As for C8G A16U C23G G33U G40C, the self-cleavage stood at 0. Consider U9G A41G C45A, for which the self-cleavage amounted to 0.05. The figure for A6C A12C A25U C31G is 0.01. U9A A26G U28A G30C C31U: the self-cleavage was 0.15.

Consider C31G U34G C45U, for which the self-cleavage amounted to 0.06. Next, U9A G40A U43A: 0.17; G1A G30U C31U A41C: 0.04; C3G A6G A25C C31U G36A G44U: 0.07.

Turning to A14U G21A G22U A41G C46G, the self-cleavage is 0.04. The figure for C3A U9C A14G is 0.04.

Turning to A16U C23U G29U, the self-cleavage came to 0.23. A12C G21U A26G C31U: the self-cleavage amounted to 0.

On to G2C A14C G27A C42G, for which the self-cleavage is 0.03. Next, G7A G27A G30U: 0.22; G7U A25U G33A C46U: 0.09. The figure for G1U A4C A6U G22U G29C is 0.06; for G17U C23A U34C it is 0.04. The figure for C3G G17A C23A U34A C37G is 0.02; for G5U G19A A25C it is 0.01. Take C3G A4G C18U U28G: the self-cleavage was 0.34.

As to G19U G22U G30U A39G G44A, the self-cleavage was 0.09. The figure for A16C G17A G36A is 0.05; for A16U A24G C31A it is 0.

As for G2A A11U C15A G30A C31A U34G, the self-cleavage stood at 0.01. Consider G2U G17C G40A, for which the self-cleavage stood at 0.01.

Turning to C3G U9G A14G G17C, the self-cleavage came to 0.37. Next, G19C C23U G35U C42G: 0.03; A11U A16G G33C: 0. Next, C13U A26U G27C C37A: 0.09; G1U C13U G29U: 0.17; C8U U9A C10G U34A G40U G44U: 0.02. Consider G7C A26G U34A, for which the self-cleavage amounted to 0.05. Next, G17U G27A C31A: 0.33. G1U C3A U20C C23G G30A: the self-cleavage came to 0.34. The figure for C13U C31G G35C is 0.08; for U9C U28G U32C it is 0.03.

Take A4C G5A C18G: the self-cleavage turned out to be 0.1. The figure for U9G G19C G29U is 0.05.

For G5C C15U G30U, the self-cleavage turned out to be 0.04. The figure for C13G C23G A25U is 0.29. The figure for G21U A41C C42U is 0.05; for G29A G36U G40U U43A C46G it is 0.01; for U9A C37G C46A it is 0.05. Next, U20G G21U G22U C31U G35C: 0.08; A4G G22A G44A: 0.11.

As to G1U C8G G36A, the self-cleavage amounted to 0.03. The figure for A4U A14C A25C C31U C45A is 0.01; for G2A C13A G21U G35C C37A it is 0.29. Next, G1U C3G G36C: 0.03.

With G2A U9G C15G G27C C31A G33C U34C, the self-cleavage was 0.02.

For the variant C18A C23G A39U C42G, the self-cleavage stood at 0.02. As for C8G G17A G44U, the self-cleavage turned out to be 0.14. Next, G2A G19A A25C: 0.37; C8A C23A G29U A39U: 0.1. Turning to G2U A24U A26C U32G, the self-cleavage stood at 0.05. On to U20A G27A U34G, for which the self-cleavage was found to be 0.56. For G17A G35U C37A A39G, the self-cleavage was determined as 0.04. In the case of G29U C37A A39C, the self-cleavage was found to be 0.05. The figure for U34G C37G A41G U43G is 0; for A6C C10A G27C C46U it is 0.02; for U20A G22U A26U G27A A41G C42U it is 0.01.

As to A24G C37A G40U, the self-cleavage was found to be 0.14. Turning to A14C U32C C45A C46A, the self-cleavage was determined as 0.06. Next, C8U A41G C42A: 0.07; G19C A24U G30U U34C: 0.04; C15G G21U G35C C45A: 0. Next, C10U G22U G40C C42U: 0.02.

For the variant G2A G7U U20G G29C C31G G40A, the self-cleavage worked out at 0.08. With G1C G36U C46G, the self-cleavage stood at 0.03. The figure for A16G G19U G27A C31U is 0.16; for C3A G7A G19U G36A it is 0.55. Next, G5C C15U U28A G29U G40C: 0.08; U9C C10U A12U C42U: 0.01; G2U G7U G22C G30A: 0.02. Take C3U U32C C42G: the self-cleavage amounted to 0.06. On to G5U U20G C31U, for which the self-cleavage worked out at 0.03. As to U9A C10A C13G C23U C45G, the self-cleavage worked out at 0.04. As for C15A A39U G40U G44U, the self-cleavage worked out at 0.03. Next, G17U A24C A25G G29U: 0.06; G1C A6C A11C A12G C23A A41U: 0.01. The figure for G2U A11U U28C G33A C37U is 0.02. Next, A12G G40A C46G: 0.06; C3A G5C A11U G27A U38A: 0.02. Regarding A16U G19U U34G, the self-cleavage was 0.03. The figure for A4C G7C C37U is 2.72. As to G2U A14U A16C G21U U28G C45A, the self-cleavage worked out at 0. The figure for A11C C18U G19U A41G C45U is 0.05; for G1U G19C G40C it is 0.02.

Regarding C3A G30A A41G, the self-cleavage turned out to be 0.13. For G5A U34G G36C, the self-cleavage came out at 0.02. On to G1C C15A U28C U38A A39U, for which the self-cleavage is 0.02. On to G19A G35U A41U C42U, for which the self-cleavage stood at 0.06.

On to C8U C23G G27U A39U, for which the self-cleavage turned out to be 0.1. With A4G C8G G17A U32A G33A U34G, the self-cleavage turned out to be 0.03. Next, C18U C42U G44A C46A: 0.17; A16U C23A A25U: 0.1; G5A C13U C18U A25G G30A: 0.05. The figure for G22A U38G C42A is 0.03.

Take G2U G29A C42A: the self-cleavage worked out at 0.07. On to A6G A16G A25C, for which the self-cleavage worked out at 0.24. C10G U38G C42A C46U: the self-cleavage stood at 0.

Turning to U9A U20C G36A, the self-cleavage was 0.17. Next, A6U C15U G29A G36A: 0.36; A12U A14G G27U G36A U43A C46U: 0.01; G19A A24U G30U: 1.53. On to A25C G29U G35U G36C A39G, for which the self-cleavage turned out to be 0.03. As for C3U C23G C31G, the self-cleavage amounted to 0.03. Turning to C15G A16G G22C, the self-cleavage was 0.01. Consider G2C A16U C18G, for which the self-cleavage is 0.02.
